# Measured values reported in the supplement of paper PMC9135407.
# Several values for one entry are separate records, joined by “and”; a condition that tells them apart may be missing. Equal entries are not always repeated. Structures can show the parent of a compound that is named as a salt. Among all 5,800 compounds or so, about 620 (11%) showed activity.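 How the source made its calls: active = score above a cut-off or among the top three wells of a plate; in these data no inactive exceeds 0.85.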 The entries are a selection whose mix differs from that of the whole data set.
# Test system: primary human hepatic stellate cells (donor 1)
# Test: scaled lipid accumulation score (0 = DMSO-like, 1 = nortriptyline-like); higher = stronger HSC inactivation (lipid re-accumulation), active = hit call of the paper
# Conditions: 48 h
# [1] = library stock concentration: 10 mM
# [2] = library stock concentration: 2 mM
# [3] = library stock concentration: 3.33 mM
# [4] = library stock concentration: 6.2 mM
# [5] = library stock concentration: 1 mM
# [6] = library stock concentration: 80 uM
# [7] = library stock concentration: 400 uM
compound,measurement,setting,value
O=C1Nc2ccc(Cl)cc2[C@@](C#CC2CC2)(C(F)(F)F)O1 [Efavirenz],scaled lipid accumulation score,library stock concentration: 6.3 mM,inactive: ≤ 0
CC(C)NCC(O)COc1cccc2ccccc12.Cl (centres undefined),scaled lipid accumulation score,[1],active: 0.882
CC(C)c1cc(-c2n[nH]c(=O)n2-c2ccc3c(ccn3C)c2)c(O)cc1O [Ganetespib],scaled lipid accumulation score,[2],active: 0.915
same,scaled lipid accumulation score,[1],active: 0.885
CC(=O)Nc1ccc(S(=O)(=O)c2ccc(NC(C)=O)cc2)cc1 [Acedapsone],scaled lipid accumulation score,library stock concentration: 6 mM,inactive: ≤ 0
O=C(O)c1ccccc1Nc1cccc(C(F)(F)F)c1 [Flufenamic acid],scaled lipid accumulation score,,inactive: ≤ 0
same,scaled lipid accumulation score,[3],inactive: ≤ 0
same,scaled lipid accumulation score,library stock concentration: 7.1 mM,inactive: ≤ -0.004 and inactive: ≤ 0
same,scaled lipid accumulation score,[1],inactive: ≤ -0.001 and inactive: 0.118
same,scaled lipid accumulation score,library stock concentration: 17.8 mM,inactive: ≤ -0.021
CC[N+](C)(CC)CCC[n+]1c(-c2ccccc2)c2cc(N)ccc2c2ccc(N)cc21 [Propidium iodide],scaled lipid accumulation score,,inactive: ≤ 0
same,scaled lipid accumulation score,library stock concentration: 7.5 mM,inactive: ≤ -0.012
O=C(c1ccc(F)cc1)C1CCN(CCn2c(=S)[nH]c3ccccc3c2=O)CC1 [Altanserin hydrochloride],scaled lipid accumulation score,[1],inactive: 0.451
O=C(c1ccc(F)cc1)C1CCN(CCn2c(=S)[nH]c3ccccc3c2=O)CC1 [Altanserin],scaled lipid accumulation score,[1],inactive: 0.491
O=C(O)Cn1nnc(-c2cc(N3CCC(Oc4cc(F)ccc4Br)CC3)no2)n1,scaled lipid accumulation score,[3],inactive: ≤ 0
same,scaled lipid accumulation score,[1],inactive: ≤ 0
OCCc1ccccc1 [Phenylethyl alcohol],scaled lipid accumulation score,library stock concentration: 16.4 mM,inactive: ≤ 0
Clc1ccc(C(c2ccccc2Cl)C(Cl)Cl)cc1 (centres undefined) [Mitotane],scaled lipid accumulation score,[3],inactive: ≤ 0
same,scaled lipid accumulation score,[4],inactive: 0.067
same,scaled lipid accumulation score,[1],inactive: 0.479 and inactive: 0.147
"Clc1ccc(C(c2ccccc2Cl)C(Cl)Cl)cc1 (centres undefined) [1-(2-Chlorophenyl)-1-(4-chlorophenyl)-2,2-dichloroethane]",scaled lipid accumulation score,[1],inactive: 0.387
O=C1O[C@H]([C@@H](O)CO)C(O)=C1O [Vitamin C],scaled lipid accumulation score,[3],inactive: 0.026
same,scaled lipid accumulation score,[1],inactive: ≤ 0
O=C1O[C@H]([C@@H](O)CO)C(O)=C1O [Ascorbic acid],scaled lipid accumulation score,,inactive: 0.027
same,scaled lipid accumulation score,[1],inactive: 0.006
Cc1cccc(C)c1OCC(=O)N[C@@H](Cc1ccccc1)[C@@H](O)C[C@H](Cc1ccccc1)NC(=O)[C@H](C(C)C)N1CCCNC1=O [Lopinavir],scaled lipid accumulation score,[3],inactive: ≤ 0
same,scaled lipid accumulation score,[1],inactive: ≤ 0
CCn1c2ccccc2c2cc(CNC)ccc21.Cl,scaled lipid accumulation score,[1],active: 0.872
Cc1ccc(NC(=O)c2ccc(CN3CCN(C)CC3)cc2)cc1Nc1nc(-c2cccnc2)cs1 [Masitinib],scaled lipid accumulation score,[1],active: 1.07
COc1cc(CNC(=O)CCCCCCC(C)C)ccc1O [Dihydrocapsaicin],scaled lipid accumulation score,[5],inactive: 0.003
same,scaled lipid accumulation score,[1],inactive: 0.27
N#CC[C@H](C1CCCC1)n1cc(-c2ncnc3[nH]ccc23)cn1 [S-Ruxolitinib],scaled lipid accumulation score,[6],inactive: 0.036
same,scaled lipid accumulation score,[7],inactive: ≤ 0
same,scaled lipid accumulation score,[2],inactive: 0.064
same,scaled lipid accumulation score,[1],inactive: ≤ 0
N#CC[C@H](C1CCCC1)n1cc(-c2ncnc3[nH]ccc23)cn1,scaled lipid accumulation score,[6],inactive: 0.03
same,scaled lipid accumulation score,[7],inactive: ≤ -0.009
same,scaled lipid accumulation score,[2],inactive: ≤ -0.009
same,scaled lipid accumulation score,[3],inactive: ≤ 0
same,scaled lipid accumulation score,[1],inactive: ≤ 0 and inactive: 0.092 and inactive: 0.075
O=[N+]([O-])c1ccc(O)c2ncccc12,scaled lipid accumulation score,[1],inactive: 0.08
CCCc1nn(C)c2c(=O)[nH]c(-c3cc(S(=O)(=O)N4CCN(C)CC4)ccc3OCC)nc12 [Sildenafil citrate salt],scaled lipid accumulation score,[1],inactive: 0.592
CCCc1nn(C)c2c(=O)[nH]c(-c3cc(S(=O)(=O)N4CCN(C)CC4)ccc3OCC)nc12 [Sildenafil Citrate],scaled lipid accumulation score,[3],inactive: 0.035
same,scaled lipid accumulation score,[1],inactive: ≤ 0
CCCc1nn(C)c2c(=O)[nH]c(-c3cc(S(=O)(=O)N4CCN(C)CC4)ccc3OCC)nc12 [Sildenafil],scaled lipid accumulation score,[1],inactive: ≤ -0.027
NNC(=O)c1ccncc1.Nc1ccc(C(=O)O)c(O)c1 [Pasiniazid],scaled lipid accumulation score,[1],inactive: ≤ -0.027
CN(C[C@@H]1COCCO1)S(=O)(=O)Nc1ccc2ccc3ncc(-c4cnn(C)c4)cc3c(=O)c2c1,scaled lipid accumulation score,[3],inactive: ≤ 0
same,scaled lipid accumulation score,[1],inactive: ≤ 0
CC(O)(CC(=O)O)CC(=O)O,scaled lipid accumulation score,[1],inactive: 0.023
C[C@@H]1CN(c2c(F)c(F)c3c(=O)c(C(=O)O)cn(C4CC4)c3c2F)C[C@H](C)N1,scaled lipid accumulation score,[1],inactive: ≤ 0
CCCCS(=N)(=O)CCC(N)C(=O)O [L-Buthionine-sulfoximine],scaled lipid accumulation score,[1],inactive: 0.065
O=C(CSc1nc2c(c(=O)n1-c1ccccc1)SCC2)Nc1ccc(-c2ccccc2)cn1,scaled lipid accumulation score,[3],inactive: ≤ -0.009
same,scaled lipid accumulation score,[1],inactive: ≤ 0
COc1cccc(OC)c1OCCNCC1CSc2ccccc2O1 (centres undefined) [Benoxathian hydrochloride],scaled lipid accumulation score,[1],inactive: 0.629
CCC(C)(C)C(=O)O[C@H]1C[C@@H](C)C=C2C=C[C@H](C)[C@H](CC[C@@H]3C[C@@H](O)CC(=O)O3)[C@H]21 [Simvastatin],scaled lipid accumulation score,,inactive: 0.214
same,scaled lipid accumulation score,[3],inactive: 0.271
same,scaled lipid accumulation score,library stock concentration: 4.8 mM,inactive: 0.213 and inactive: 0.218
CCOC(=O)CC(=O)N1CCSC1COc1ccccc1OC (centres undefined) [Moguisteine],scaled lipid accumulation score,[3],inactive: ≤ 0
same,scaled lipid accumulation score,[1],inactive: ≤ 0
CCOC(=O)CC(=O)N1CCSC1COc1ccccc1OC (centres undefined),scaled lipid accumulation score,[1],inactive: ≤ 0
CC(=O)Oc1ccc(C(c2ccc(OC(C)=O)cc2)c2ccccn2)cc1 [Bisacodyl],scaled lipid accumulation score,,inactive: 0.074
same,scaled lipid accumulation score,[3],inactive: ≤ 0
same,scaled lipid accumulation score,[1],inactive: ≤ -0.001 and inactive: ≤ 0
N=c1nc(N2CCCCC2)cc(N)n1O [Minoxidil],scaled lipid accumulation score,[1],inactive: ≤ -0.055
CN(C)CCOc1ccc(C(=C(CCCl)c2ccccc2)c2ccccc2)cc1.O=C(O)CC(O)(CC(=O)O)C(=O)O [Toremifene Citrate],scaled lipid accumulation score,[1],active: 1.23
CC(C)c1cnn2c(NCc3ccccc3)cc(NCCCCCCN)nc12,scaled lipid accumulation score,[6],inactive: ≤ -0.016
same,scaled lipid accumulation score,[7],inactive: ≤ -0.016
same,scaled lipid accumulation score,[2],inactive: ≤ -0.016
same,scaled lipid accumulation score,[3],inactive: ≤ 0
same,scaled lipid accumulation score,[1],inactive: ≤ 0 and inactive: ≤ -0.016
CCc1nn(CCCN2CCN(c3cccc(Cl)c3)CC2)c(=O)n1CCOc1ccccc1,scaled lipid accumulation score,[1],inactive: 0.568
CCc1nn(CCCN2CCN(c3cccc(Cl)c3)CC2)c(=O)n1CCOc1ccccc1 [Nefazodone],scaled lipid accumulation score,[1],inactive: 0.241
CCc1nn(CCCN2CCN(c3cccc(Cl)c3)CC2)c(=O)n1CCOc1ccccc1 [Nefazodone hydrochloride],scaled lipid accumulation score,[1],inactive: 0.343
NC1CONC1=O (racemic) [DL-Cycloserine],scaled lipid accumulation score,[1],inactive: ≤ 0
CCCCC[C@H](O)/C=C/[C@H]1C(=O)C[C@H](O)[C@@H]1C/C=C\CCCC(=O)OC [Prostaglandin D2 methyl ester],scaled lipid accumulation score,[5],inactive: ≤ 0
CNCCCCOc1ccccc1Cc1ccccc1.Cl [Bifemelane hydrochloride],scaled lipid accumulation score,[1],active: 1.41
CCCNC(C)(C)COC(=O)c1ccccc1 [Meprylcaine hydrochloride],scaled lipid accumulation score,,inactive: ≤ 0
"OC[C@H]1NC[C@@H](O)[C@@H]1O [1,4-Dideoxy-1,4-imino-D-arabinitol]",scaled lipid accumulation score,[1],inactive: ≤ -0.07
CC(C)[C@H](NC(=O)OCc1ccccc1)C(=O)N[C@H](C=O)Cc1ccccc1,scaled lipid accumulation score,[1],inactive: 0.085
c1cc(OCCN2CCCCC2)cc(-c2n[nH]c3ccc(-c4nnc[nH]4)cc23)c1,scaled lipid accumulation score,[6],inactive: ≤ -0.016
same,scaled lipid accumulation score,[7],inactive: ≤ -0.016 and inactive: ≤ -0.005
same,scaled lipid accumulation score,[2],inactive: ≤ -0.016 and inactive: 0.022
C[N+](C)(CCOc1ccccc1)Cc1ccccc1.O=C([O-])c1cc2ccccc2cc1O [Bephenium hydroxynaphthoate],scaled lipid accumulation score,,inactive: ≤ 0
Cc1nc2c([nH]1)c(=O)n(C)c(=O)n2Cc1ccco1 [Furafylline],scaled lipid accumulation score,library stock concentration: 7.7 mM,inactive: ≤ -0.006
same,scaled lipid accumulation score,[1],inactive: ≤ -0.07
CCC(C)C1OC2(CCC1C)CC1CC(CC=C(C)C(OC3CC(OC)C(OC4CC(OC)C(O)C(C)O4)C(C)O3)C(C)C=CC=C3COC4C(O)C(C)=CC(C(=O)O1)C34O)O2 (centres undefined) [Ivermectin],scaled lipid accumulation score,[3],inactive: 0.007
same,scaled lipid accumulation score,[1],inactive: 0.198
CC(NCCc1ccc(O)cc1)C(O)c1ccc(O)cc1 (centres undefined) [Ritodrine hydrochloride],scaled lipid accumulation score,,inactive: ≤ 0
same,scaled lipid accumulation score,[4],inactive: ≤ 0
same,scaled lipid accumulation score,[1],inactive: ≤ 0
CC(NCCc1ccc(O)cc1)C(O)c1ccc(O)cc1 (centres undefined) [Ritodrine HCl],scaled lipid accumulation score,[3],inactive: ≤ 0
same,scaled lipid accumulation score,[1],inactive: ≤ 0
CC(C)(O)CC(=O)NCCn1ccc2ncnc(Nc3ccc(Oc4cccc(C(F)(F)F)c4)c(Cl)c3)c21,scaled lipid accumulation score,[3],inactive: ≤ 0
same,scaled lipid accumulation score,[1],inactive: 0.302
CC(=O)Nc1ccc(OC(C)=O)cc1,scaled lipid accumulation score,[1],inactive: ≤ 0
NC1CCN(c2c(F)cc3c(=O)c(C(=O)O)cn(C4CC4)c3c2Cl)C1 (centres undefined),scaled lipid accumulation score,[1],inactive: ≤ 0
CCC1(C)CC(=O)NC1=O (centres undefined) [Ethosuximide],scaled lipid accumulation score,,inactive: ≤ 0
same,scaled lipid accumulation score,[1],inactive: ≤ -0.07 and inactive: ≤ 0
same,scaled lipid accumulation score,library stock concentration: 14.2 mM,inactive: ≤ 0
CCN1C(=O)C=CC1=O [N-Ethylmaleimide],scaled lipid accumulation score,[1],inactive: 0.37
O=C(Nc1c[nH]nc1-c1nc2ccc(CN3CCOCC3)cc2[nH]1)NC1CC1,scaled lipid accumulation score,[7],active: 0.877
O=C(NC(Cc1cc(=O)[nH]c2ccccc12)C(=O)O)c1ccc(Cl)cc1 (centres undefined) [Rebamipide],scaled lipid accumulation score,[3],inactive: ≤ 0
same,scaled lipid accumulation score,library stock concentration: 5.4 mM,inactive: ≤ 0
same,scaled lipid accumulation score,[1],inactive: ≤ 0 and inactive: 0.058
C[N+](C)(C)CCOC(N)=O [Carbachol],scaled lipid accumulation score,,inactive: ≤ 0
same,scaled lipid accumulation score,[1],inactive: ≤ 0 and inactive: 0.253
same,scaled lipid accumulation score,library stock concentration: 11 mM,inactive: ≤ -0.001
CC(C)c1cc(C(C)C)c(CC(=O)NS(=O)(=O)Oc2c(C(C)C)cccc2C(C)C)c(C(C)C)c1 [Avasimibe],scaled lipid accumulation score,[3],inactive: ≤ 0
same,scaled lipid accumulation score,[1],inactive: ≤ 0
